# Reference: the supplement of paper PMC3334620
# In all, about 33,000 sequences were measured (“E-score (-0.5 to 0.5)”: median about -0.021, highest 2% from about 0.32 on). The list shows a part of the results.
# Molecular target: T1, Zap1 (UniProt P47043)
# T1 sequence: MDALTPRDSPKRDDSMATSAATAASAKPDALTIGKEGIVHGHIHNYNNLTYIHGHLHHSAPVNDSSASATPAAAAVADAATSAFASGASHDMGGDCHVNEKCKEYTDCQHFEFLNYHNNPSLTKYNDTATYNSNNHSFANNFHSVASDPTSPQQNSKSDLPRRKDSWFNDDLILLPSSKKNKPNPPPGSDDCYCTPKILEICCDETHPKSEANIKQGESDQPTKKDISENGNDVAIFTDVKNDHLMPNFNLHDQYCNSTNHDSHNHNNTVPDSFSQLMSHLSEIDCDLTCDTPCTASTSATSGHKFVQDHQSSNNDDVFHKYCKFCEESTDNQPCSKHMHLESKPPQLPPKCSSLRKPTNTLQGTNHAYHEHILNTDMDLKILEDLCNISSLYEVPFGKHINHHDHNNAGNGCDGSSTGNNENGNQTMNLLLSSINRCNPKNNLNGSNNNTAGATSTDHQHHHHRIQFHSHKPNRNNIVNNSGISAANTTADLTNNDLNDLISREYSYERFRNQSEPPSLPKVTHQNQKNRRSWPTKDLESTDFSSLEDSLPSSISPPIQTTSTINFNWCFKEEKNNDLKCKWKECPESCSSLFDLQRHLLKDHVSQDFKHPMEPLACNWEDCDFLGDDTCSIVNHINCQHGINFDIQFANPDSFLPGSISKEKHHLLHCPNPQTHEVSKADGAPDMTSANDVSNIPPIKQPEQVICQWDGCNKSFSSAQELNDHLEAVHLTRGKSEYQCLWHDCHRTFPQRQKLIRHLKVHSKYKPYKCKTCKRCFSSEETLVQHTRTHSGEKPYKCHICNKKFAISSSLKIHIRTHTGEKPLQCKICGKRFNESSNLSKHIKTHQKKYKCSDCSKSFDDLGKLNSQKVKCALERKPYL
# Experiment: PBM E-score (8-mer binding enrichment) (E-score (-0.5 to 0.5)); higher = stronger / more preferred TF binding; most listed sequences are background and not binding sites
# Conditions: protein concentration: 200 nM; construct: GST-full length
# Outline: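 Using PURExpress in vitro transcription/translation, GST-tagged yeast transcription factors were made in full-length or DNA-binding-domain form. These were applied at about 100-200 nM to double-stranded universal all-10-mer Agilent arrays, and bound protein was detected with fluorescent anti-GST. Scans were normalised with masliner before the Universal PBM Analysis Suite assigned E-scores to ungapped eight-base words pooled with their reverse complements.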
row,Sequence,PBM E-score
1,GACATATC,0.00746
2,AGCGAACT,-0.102
3,CCTCGAGC,0.0178
4,CAGAACAA,0.298
5,CCAGGGCA,-0.123
6,CCCAGGAG,0.012
7,ACGGGATA,0.0668
8,AGTACTTA,0.0107
9,ATAAGGTC,0.184
10,CCCTCGAA,-0.0507
11,GCAACTTA,0.104
12,GTGCTAAA,-0.0213
13,ACCACTAC,0.182
14,CATAGCCG,-0.0532
15,AGTTCGAC,-0.0259
16,CGTGCACA,-0.136
17,AATGACCA,0.334
18,TCGGAAAA,0.0133
19,GCTCCGCA,-0.272
20,ATGCATTC,-0.0449
21,CCATACCG,-0.0734
22,ATAGGGCA,-0.0304
23,AACAGCAT,-0.0619
24,GCATGACC,0.234
25,GACCGTCA,0.062

row,Sequence,PBM E-score
1,TATGAATA,0.0234
2,AGTACCTA,0.299
3,CACTTTCA,0.109
4,AGTTAACA,0.117
5,GTAAACAC,0.0841
6,AGCCTTGG,-0.208
7,CAACCAGA,0.0688
8,CCCAGAAG,0.00556
9,AGAATACT,0.0414
10,AACTAGTA,0.145
11,AAGTGTCC,-0.108
12,CAACTAAA,0.106
13,AACGAGTT,-0.11
14,GCCATCAC,-0.0497
15,CCCATTGA,0.014
16,GCACTCTA,0.159
17,ATGTATGA,0.118
18,CGAGGCTA,0.178
19,CAAGTAAC,0.284
20,GCAAACAA,0.142
21,AGTCAAAC,-0.0511
22,CTCGTTAA,0.00164
23,AATTCGGA,0.0199
24,CAACGTTG,-0.00367
25,GGCGTCCA,-0.125

row,Sequence,PBM E-score
1,ATCTTTGC,0.0208
2,ACGTTTAA,0.1
3,GCTTTACA,-0.0896
4,ACATAGGG,0.00531
5,CGGATCAG,-0.141
6,GATAAACA,0.0546
7,ACGGGTAT,0.312
8,CAACATCG,-0.0913
9,GGCAACTA,-0.0638
10,CAGGCGCC,-0.188
11,AAGCGCAC,-0.156
12,GCCATAAC,0.12
13,CTTGATAC,-0.00663
14,GAGCACTC,-0.13
15,GGACACCA,0.0222
16,ATGTTAAG,-0.0536
17,GAAATCCC,0.0594
18,ACGAGCTA,-0.0843
19,GGTCTGGA,-0.134
20,ATCGCCAC,0.093
21,AGGATTAC,0.0553
22,CTTCCACA,-0.0978
23,CCTAAAAC,0.181
24,TACTCATA,-0.113
25,AACGAAAC,0.117

row,Sequence,PBM E-score
1,GGCGTCAC,-0.129
2,GGGCCCTA,0.0474
3,AAACTTTG,0.112
4,AACATCTC,-0.131
5,GCTCCAAC,-0.045
6,GTAACCTA,0.458
7,ACGATCAG,0.044
8,CTGAGCCA,-0.0359
9,TGAAAGCA,0.0751
10,TACAGGTA,0.213
11,ACGCTCCT,-0.261
12,CTGTCTCC,-0.253
13,AAATCACT,0.0213
14,TGCTGAAA,-0.0931
15,AGCGCATC,-0.3
16,CATCGCGG,0.147
17,ATGCCATG,-0.107
18,GGCGCCCC,-0.15
19,CGAGACGA,-0.26
20,ATTAGGCA,-0.131
21,AGGAATAT,-0.00164
22,CCTATCAC,0.0121
23,GCTTGCAC,-0.181
24,AAACCGGC,0.185
25,GGCCACCC,0.241

row,Sequence,PBM E-score
1,CCGGCTAG,-0.261
2,CAGGTTGC,0.0972
3,GTGTATTA,0.248
4,GGGAGAAA,0.0239
5,AGTGCACT,0.0393
6,ACTGAACT,-0.00112
7,AGGCTGCA,-0.0385
8,GACCTATA,0.295
9,CGCAGCCC,-0.0497
10,GGCCGACA,-0.00342
11,GGACAGCC,-0.0735
12,AGCGGCCG,0.0255
13,CGGCTTCC,-0.239
14,AACCCTCA,0.383
15,GCGCTAGC,-0.275
16,CACATTGG,-0.00859
17,CGGCTGAA,-0.0251
18,ATCAATCA,0.203
19,CCGTGTGC,-0.204
20,ATCTGGAG,-0.00727
21,TAGGTTGA,0.101
22,CCTTCGGC,-0.0312
23,GCAAGACC,0.0765
24,CGTCCTAC,-0.193
25,TCCTTACA,0.112

row,Sequence,PBM E-score
1,AGTTACAA,0.193
2,AGACCAGG,-0.029
3,ATAGTAAT,0.149
4,CCGTACAC,0.141
5,CAAGGGGG,-0.123
6,ATCTGGAA,-0.00838
7,GCCACGCA,-0.113
8,AAGTGTGA,-0.239
9,AATGCTGC,-0.0899
10,CTGTACCA,-0.125
11,CACGCGTA,0.0393
12,ATGACGTG,-0.161
13,GACCACGA,0.115
14,ACGAAGCC,-0.0778
15,TCTATGCA,-0.0844
16,ACACTAAG,0.102
17,GTGCTAGA,-0.205
18,GGAAAAAC,0.178
19,GGCATTCA,-0.219
20,GCAGTGAC,-0.018
21,GACGGCGC,-0.28
22,AACTAGAT,0.0713
23,AGCGCAAA,-0.172
24,GAACATCC,0.00204
25,CCCATACC,0.223

row,Sequence,PBM E-score
1,CGTCAAAC,-0.0166
2,AACCGCTA,0.23
3,ATCAATAA,0.184
4,CGCTGCGC,-0.373
5,AAGTCGAA,-0.22
6,TCAGTCCA,-0.309
7,CTTTGAAA,0.129
8,GCTGTCCA,0.00525
9,AACCAATT,0.213
10,AAGCTAGT,-0.146
11,CCAGTTCC,0.0998
12,TATAGCCA,-0.028
13,CGGCAGTC,-0.101
14,CGGCGGCA,-0.236
15,CGCATCAC,0.12
16,ATACGTTG,-0.168
17,TCCGGCCA,-0.212
18,ATCTCGCC,-0.29
19,AAAGATCT,-0.0307
20,TACTTATA,0.0726
21,TAATTTGA,0.0906
22,CATGTCGA,-0.0799
